Test results published in PubChem BioAssay AID686971 (National Center for Advancing Translational Sciences (NCATS), 2013).
The whole screen tested about 360,000 compounds, of which about 7,500 (2.1%) were called active. Inconclusive results, whose numbers are uncertain, are shown with a selection of clear calls. Calls come from the whole dose curve; as a rule, active = well fitted cell-killing curve with a large enough effect; inconclusive = small, poorly fitted or top-dose-only effect, or effect the other way, or another doubt; inactive = no such curve, though single readings can be large or run the other way. No potency is given beside an inconclusive call; the fits are too rough.

test: qHTS for induction of synthetic lethality in tumor cells producing 2HG: qHTS for the HT-1080-IDH1KD cell line; details: HT-1080 IDH1 knockdown viability, ATP luminescence, 48 h; activity, negative = toxicity: at 46.1 µM (top of the series) unless noted;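 for activity, negative = toxicity: 0% = DMSO wells and -100% = cell-free medium wells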
Procedure, shortened: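 Cytotoxicity counter-line: IDH1KD HT-1080, 48 h, CellTiter-Glo. Curves classed by r2, magnitude and activity.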
Potency is the fitted concentration of half-maximal effect; tags give direction and shape of the fitted curve.

SMILES	Potency	activity, negative = toxicity
S=C(NCCC(c1ccccc1)c1ccccc1)Nc1ccc(Cl)cc1	inconclusive [cytotoxic, single point]	
CCc1cc(C(=O)N(CC)CC(=O)Nc2ccc(OC)cc2)sc1C	inactive	
Cc1ccc(Cl)cc1N1CCN(C(=O)C2CCC(=O)N(C3CCCCCC3)C2)CC1 (configuration not stated)	inconclusive [cytotoxic, full curve]	
Cc1cc2n(n1)SC(Nc1ccc(F)c(Cl)c1)N2 (configuration not stated)	inconclusive [cytotoxic, single point]	
CCOC(=O)C1=C[C@@H](C)N(S(=O)(=O)c2ccc(C)cc2)[C@H]1c1ccccc1	inactive	
Cc1nn(-c2nc3ccccc3[nH]2)c(N)c1-c1ccccc1	inconclusive [cytotoxic, single point]	
CC(NCCN(C)C)C1CCC2C3CCc4cc(O)ccc4C3CCC12C (configuration not stated)	inconclusive [cytotoxic, single point]	
O=C(CCN1CCOCC1)NNC(=O)c1ccc([N+](=O)[O-])cc1[N+](=O)[O-]	inconclusive [cytotoxic, single point]	
O=C(O)c1ccc(NC(=O)c2ccc(COc3ccccc3)o2)cc1	inconclusive [cytotoxic, partial curve]	
Cc1ccc2nc(NC(=O)c3cc(-c4ccco4)nc4ccccc34)sc2c1	inconclusive [cytotoxic, single point]	
COc1ccc(OCc2nnc(SCC(=O)N3C(C)CCCC3C)o2)cc1 (configuration not stated)	inactive	
O=C(N/N=C/c1ccccn1)c1cc(C2CC2)nc2ccccc12	inconclusive [cytotoxic, partial curve]	
Cn1ncc2c(O/N=C(\N)c3ccc(C(C)(C)C)cc3)ncnc21	active: 6.51 µM	
COc1ccc(C2=NOC(C(=O)NCc3cccs3)C2)cc1OC (configuration not stated)	active: 6.51 µM	
O=C(Cn1ccccc1=O)c1cccs1		inconclusive: 29.4%
Cc1ccc(S(=O)(=O)n2ccc3c(OCCOCCNCc4ccc(F)cc4)cccc32)cc1	active: 20.6 µM	
CN[C@H]1C[C@H]2c3[nH]c4ccc(-c5cccc(C)c5)cc4c3CCN2C[C@H]1[C@H](C)O	inconclusive [cytotoxic, single point]	
CCOc1cc(N2C(=O)CC3CS(=O)(=O)CC32)c(OCC)cc1NC(=O)c1ccccc1 (configuration not stated)	inconclusive [cytotoxic, single point]	
O=C(Nc1nccs1)c1cn(-c2ccccc2)nc1-c1ccccc1	inconclusive [cytotoxic, single point]	
CCCCOc1cccc(C2/C(=C(\O)c3ccc4c(c3)OCCO4)C(=O)C(=O)N2CCN2CCOCC2)c1 (configuration not stated)	inactive	
Cc1ccc(NC2SC(=O)N(CC(=O)O)C2=O)cc1 (configuration not stated)		inconclusive: -16% [cytotoxic]
Cc1cccc(/C=N/NC(=O)c2cc3c(s2)-c2ccccc2CC3)c1	inconclusive [cytotoxic, single point]	
CCOc1ccc(NS(=O)(=O)c2ccc(C(=O)NNC(=O)c3ccccc3O)cc2)cc1	inconclusive [cytotoxic, single point]	
COc1ccc(NC(=O)CN(C)C(=O)CCNC(=O)Nc2ccccc2)cc1	inactive	

SMILES	Potency	activity, negative = toxicity
Cc1ccc(-c2nc(-c3ccccn3)no2)cc1Cl	inconclusive [cytotoxic, single point]	
N#C/C(=C\c1ccc(-c2ccccc2[N+](=O)[O-])o1)C(=O)Nc1nc(-c2cccs2)cs1	inconclusive [cytotoxic, single point]	
COC(=O)C1=C(C)NC(=O)NC1c1ccc(-c2ccccc2Cl)o1 (configuration not stated)	inconclusive [cytotoxic, full curve]	
CCCCNCCOCCOc1ccc(Cl)cc1Br	inconclusive [cytotoxic, single point]	
CCN1CCN(S(=O)(=O)c2ccc(Cl)c(C(=O)NCCc3ccccc3)c2)CC1	inactive	
CC1=[N+](C)c2c(ccc3cccnc23)C1(C)C	inconclusive [cytotoxic, full curve]	
Cc1ccc(NC(=O)c2nnn(CC(=O)Nc3ccccc3)c2N)cc1C	inconclusive [cytotoxic, single point]	
Cc1ccc(NC(=O)C(OC(=O)c2ccc(NC(N)=O)cc2)c2ccccc2)cc1Cl (configuration not stated)	inconclusive [cytotoxic, single point]	
Cc1cc2c(cc1C)CSC(c1c(O)ccc3ccccc13)SC2	inconclusive [cytotoxic, single point]	
CCOc1ccc(C(=O)Nc2c(C(N)=O)oc3ccccc23)cc1	inconclusive [cytotoxic, single point]	
N#Cc1c2c(c(Nc3ccc(F)cc3)n3c1nc1ccccc13)CCCC2	inactive	
O=C1N[C@@H](c2ccccc2)COC(=O)[C@H](Cc2ccc(F)cc2)C/C=C\C[C@@H]1CC(=O)N(CCO)Cc1ccccc1	inconclusive [cytotoxic, single point]	
COC(=O)C1=C(C)NC(C)=C(C(=O)OC)C1c1ccc(-c2cccc(Cl)c2Cl)o1	inactive	
O=C(NCCCN1CCOCC1)c1ccc(-n2nc(C(F)(F)F)cc2-c2cccs2)cc1	active: 23.1 µM	
COc1ccc(CCNC(=O)COC(=O)Cn2cnc3c2c(=O)n(C)c(=O)n3C)cc1	inactive	
COC(=O)C(=O)C/C(=N/Nc1ncnc2ccccc12)c1ccc(Cl)cc1	inconclusive [cytotoxic, partial curve]	
Oc1c(C(Nc2cccc(C(F)(F)F)c2)c2cccnc2)ccc2cccnc12 (configuration not stated)	inconclusive [cytotoxic, single point]	
CC(C)(O)C#Cc1ccc(C(=O)N2CCCC(CNS(=O)(=O)c3cccs3)C2)o1 (configuration not stated)	inactive	
COCCNC(=O)C1CCCN(C(=O)c2ccc3sccc3c2)CC1 (configuration not stated)	inactive	
CCc1ccc(-c2nc(CN3CCCC(C(=O)NCCc4ccc(OC)c(OC)c4)C3)c(C)o2)cc1 (configuration not stated)	inconclusive [cytotoxic, partial curve, poor fit]	
COc1c(CC=C(C)C)cc(C2CC(=O)c3c(O)cc(O)cc3O2)cc1CC=C(C)C (configuration not stated)	inconclusive [cytotoxic, single point]	
CC(C)CNC(=O)c1c(F)c(F)c(F)c(F)c1F	inactive	
COc1cc(OC)cc(C(=O)NCC2CCCN(Cc3cccc(C(C)=O)c3)C2)c1 (configuration not stated)	inactive	
COc1ccc2nc(Nc3nc(C)c(C(C)=O)s3)sc2c1	inconclusive [cytotoxic, single point]	

SMILES	Potency	activity, negative = toxicity
Cn1c(SCC(=O)N2CCc3ccccc32)nnc1C1CC1	inactive	
CN(c1cccc(Cl)c1)S(=O)(=O)c1cccc(C(=O)NC2=NCCS2)c1	inconclusive [cytotoxic, single point]	
CCc1nc2ccc(C(=O)NCCCn3ccnc3)cn2c1N(C)Cc1cc2ccccc2s1	inconclusive [cytotoxic, single point]	
Cc1ccc(C(=O)NC(=S)Nc2ccc(N3CCN(C(=O)c4ccco4)CC3)cc2)cc1	inconclusive [cytotoxic, single point]	
Cc1ccccc1-c1cc2nc(NCCOc3ccccc3)n(C)c(=O)c2s1	inactive	
COC(=O)[C@@]12C[C@@H](CC(=O)NCc3cccc4ccccc34)C(=O)N(Cc3ccc4c(c3)OCO4)C1=CCC(C)(C)C2	inconclusive [cytotoxic, partial curve, poor fit]	
CCn1c(Cl)c(C=O)s/c1=N\S(=O)(=O)c1ccccc1	active: 8.2 µM	
COc1cc(OC)cc(C(=O)N[C@H](C(=O)Nc2nc3ccccc3[nH]2)C(C)C)c1	active: 1.3 µM	
O=C(Nc1ccccc1[N+](=O)[O-])C1=C(O)CCn2c1nc1ccccc12		inconclusive: 0% [cytotoxic]
O=C(/C=C/c1ccccc1)NC(=S)Nc1ccc(CN2CCOCC2)cc1	inconclusive [cytotoxic, single point]	
O=C1CNC(=S)N1C1CCCCCC1	inactive	
CCCC(=O)N1CCN(c2ccc(NC(=O)c3ccc(OCC)c([N+](=O)[O-])c3)cc2)CC1	inactive	
N/C(=N\c1nc2c(c(=O)[nH]1)CCC2)Nc1cccc(Cl)c1	inconclusive [cytotoxic, single point]	
O=C(Nc1cc(Cl)cc(Cl)c1)N1CCCC1	inactive	
CCc1ccc(NC(=O)c2c(Cl)nc(C)c(Cl)c2C)cc1	inconclusive [cytotoxic, single point]	
CC(=O)Nc1ccccc1C(=O)N1CCN(c2cccc(C)c2C)CC1	inactive	
Cc1cccc(NC(=O)Nc2ccc(C)cc2Br)c1	inconclusive [cytotoxic, single point]	
CN(C)CCNc1nc(Oc2cccc(F)c2)c2sccc2n1	inconclusive [cytotoxic, single point]	
N#CC1=C(N)C(C#N)(C#N)C(c2ccc[nH]2)C2CCCC=C12 (configuration not stated)	inconclusive [cytotoxic, single point]	
O=C(COc1ccccc1)Nc1ccccc1F	inactive	
CC1(C)Cc2c(sc(NC(=O)COc3cccc4ccccc34)c2C#N)C(C)(C)N1	active: 14.6 µM	
O=S1(=O)c2ccc(Br)cc2N2CCC[C@@H]2CN1Cc1ccccc1	active: 3.66 µM	
Cc1cccc(OCCN2C(=O)c3ccccc3C2=O)c1	inactive	
Cc1cccc(NC(=S)NNC(=S)NCc2ccccc2)c1	inconclusive [rising, partial curve]	
